The results in this text go back to PubChem BioAssay AID463173 (ICCB-Longwood Screening Facility, Harvard Medical School, 2010).

Out of some 52,000 compounds screened, about 1,700 (3.3%) were called active. No stated cut-off is given here; in the data, active means survival mostly below about 52% (no sharp cut-off); inactive means mostly above about 56%. Some of the results follow.

The experiment relates to Wild type. As to the kind of experiment: growth inhibition of S. aureus wild type versus tarO mutant, primary screen, teichoic acid synthesis inhibitors, RN4220, OD600 (AID 463173). To be noted: S. aureus RN4220 wild type/DeltatarO growth, OD600, 18 h, active compounds read low, screened at 18.75 µg/mL (by protocol).
In the case of `Cc1cccc(N2CCN(C(=O)CS(=O)(=O)c3cccc4nsnc34)CC2C)c1` (stereo not given), the survival was inactive: 74%.

With `CCCN1C(=O)C2(c3ccccc31)c1c(oc3ccccc3c1=O)C(=O)N2CCO` (stereo not given), the survival was inactive: 101%.

With `COc1ccccc1OCc1nc(C#N)c(NCc2ccc(C)cc2)o1`, the survival is inactive: 89%.

As to `COc1ccc(NCc2cc3cc4c(cc3n(CC(=O)Nc3ccc(C)c(C)c3)c2=O)OCO4)cc1`, the survival was inactive: 75%.

On to `CC(C)(C)OC(=O)N1CCC(c2c(C(=O)N3CCCCC3)cnn2-c2ccccc2Cl)CC1`, for which the survival was inactive: 71%.

With `Cn1c(=O)oc2cc(S(=O)(=O)CCC(=O)NCCc3ccc(Cl)cc3)ccc21`, the survival was inactive: 80%.

On to `Cn1c(=O)c2sccc2n2c(CCCC(=O)NC3CCCCC3)nnc12`, for which the survival was inactive: 98%.

With `CCn1c(Cc2ccccc2)nnc1SCC(=O)N(C)C1CCCCC1`, the survival was inactive: 108%.

Consider `Cc1ccc(Cl)cc1N1CCN(S(=O)(=O)c2cc(Br)cc3c2N(C(=O)C2CC2)CC3)CC1`, for which the survival was inactive: 81%.

For `O=C(Cn1c(-c2ccccc2)noc1=O)Nc1ccc(N2CCCCCC2)cc1`, the survival was inactive: 111%.

Regarding `COc1ccc(-c2nn(-c3ccccc3)cc2C2NC(=O)NC(C)=C2C(=O)OC(C)C)cc1Cl` (stereo not given), the survival is inactive: 83%.

Turning to `CCOC(=O)CC(NC(=O)CCc1c(C)nc2c(c1C)c(=O)n(C)c(=O)n2C)c1ccc(OCC)c(OC)c1` (stereo not given), the survival is inactive: 82%.

Turning to `CC(=O)Nc1ccc(NC(=O)C(Cc2ccccc2)NS(=O)(=O)c2ccc3c(c2)oc(=O)n3C)cc1` (stereo not given), the survival is inactive: 83%.

Take `CC(C)c1ccc(NS(=O)(=O)c2ccc3[nH]cc(C(=O)NCCc4ccccc4)c(=O)c3c2)cc1`: the survival is inactive: 102%.

In the case of `CCN1CCN(c2ccc(N=Cc3cccc(C)c3O)cc2)CC1`, the survival was inactive: 109%.

As for `CCOc1ccc(S(=O)(=O)Nc2cc3c(C(=O)OC)c(COC)oc3c3ccccc23)cc1`, the survival was inactive: 67%.

With `Cc1ccc(-n2nc(C)c3c(C)cc(=O)n(CC(=O)NC(C)c4ccccc4)c32)cc1` (stereo not given), the survival is inactive: 143%.

Take `COc1ccc(S(=O)(=O)N(CC(=O)Nc2cc(Cl)ccc2C)Cc2ccccc2)cc1OC`: the survival is inactive: 92%.

For the compound `CCn1nc(C)c2c(-c3ccccc3)cc(=O)n(C(C)C(=O)NCCc3ccc(OC)c(OC)c3)c21` (stereo not given), the survival was inactive: 73%.

`CCOc1cc(-c2ccc(OC(=O)c3ccc(OC)cc3)c(OC)c2)cc(=O)c2c(C)oc(C)c12`: the survival is inactive: 74%.

As to `Cc1ccc(N(CC(=O)Nc2cc(C)ccc2C)S(=O)(=O)c2c(C)noc2C)cc1`, the survival was inactive: 86%.

With `Cc1ccc(N=C2NC(=O)CC(C(=O)Nc3cc(C(F)(F)F)ccc3Cl)S2)cc1` (stereo not given), the survival is inactive: 91%.

Regarding `O=S(=O)(c1ccc(Cl)cc1)c1nnn2c1nc(NCc1ccc3c(c1)OCO3)c1sccc12`, the survival is inactive: 83%.

For the compound `CC(C)C(=O)N(c1nnc(-c2ccncc2)s1)C(C)C`, the survival was inactive: 111%.

Consider `CCN(CC)c1nc2c(c(=O)n(Cc3ccccc3)c(=O)n2C)n1Cc1ccccc1`, for which the survival is inactive: 104%.

On to `CCOc1ccccc1NC(=O)C1CCN(S(=O)(=O)c2ccc3c(c2)CCCN3C(C)=O)CC1`, for which the survival is inactive: 71%.

On to `CCCCN(CC)CCNC(=O)C1CCCN(c2ncnc3onc(C)c23)C1` (stereo not given), for which the survival is inactive: 77%.

For `COc1ccc(-n2c(SCC(=O)c3ccccc3)nc3c([nH]c4ccccc43)c2=O)cc1`, the survival is inactive: 88%.

On to `COc1cc(Cl)c(NS(=O)(=O)c2cc(-c3cc(C)no3)ccc2OC)c(OC)c1`, for which the survival is inactive: 89%.

As for `CC(=O)c1ccc(NC(=O)c2ccc(-n3cnnc3)cc2)cc1`, the survival was inactive: 65%.

On to `CCC(=O)N1c2ccccc2CC1C(=O)NCc1ccc(N(C)C)cc1` (stereo not given), for which the survival was inactive: 91%.

Consider `Cc1ccc(COC(=O)c2[nH]c3c(c2C)C(=O)CC(c2ccc(N(C)C)cc2)C3)cc1` (stereo not given), for which the survival is inactive: 90%.

Turning to `CCS(=O)(=O)c1ncc(Cl)c(C(=O)Nc2ccccc2)n1`, the survival is inactive: 70%.

As for `COc1ccc2nc(SC)c(C#N)cc2c1`, the survival is inactive: 109%.

For the compound `COC(=O)c1sccc1S(=O)(=O)N(CC(=O)Nc1ccccc1F)c1ccccc1`, the survival is inactive: 67%.

`CCCn1c(=N)n(CC(=O)C(C)(C)C)c2ccccc21`: the survival is inactive: 117%.

With `CCOc1ccc(C(=O)c2oc3ccccc3c2NC(=O)c2cc(-c3ccc(Cl)cc3)on2)cc1`, the survival is inactive: 89%.

Turning to `COc1ccc(-c2nnc(SCC(=O)N(C)C3CCCCC3)o2)cc1OC`, the survival is inactive: 81%.

For the compound `O=c1oc2c3c(ccc2c2ccccc12)OCN(Cc1ccccc1Cl)C3`, the survival was inactive: 70%.

As for `O=S(=O)(NCC(c1ccco1)S(=O)(=O)c1cccs1)c1ccc(Cl)cc1` (stereo not given), the survival is inactive: 81%.

Take `CN(Cc1ccccc1)c1ncnc2c1nnn2C`: the survival was inactive: 68%.

For `CCc1nn(CC(=O)N(C)Cc2ccccc2)c(=O)c2cc3sccc3n12`, the survival is inactive: 106%.

Take `CC(=O)c1cccc(NS(=O)(=O)c2cc(-c3cnc(C4CC4)o3)ccc2C)c1`: the survival is inactive: 113%.

Consider `Cc1ccc(CSCCC(=O)NCc2ccc(F)cc2Cl)cc1`, for which the survival was inactive: 133%.

Turning to `Cc1cccc(C(=O)n2nc(-c3cccnc3)nc2NCc2ccccc2)c1`, the survival is inactive: 106%.

As for `CCn1cc(C(=O)NCCCOC)c(=O)c2cc(S(=O)(=O)N3CCCC3)ccc21`, the survival was inactive: 84%.

As for `Cc1ccc(C(=O)NCCc2ccc(S(N)(=O)=O)cc2)cc1-n1cnc2cccnc21`, the survival is inactive: 72%.

With `COC(=O)c1c(NC(=O)Cc2coc3ccc(C(C)C)cc23)sc2c1CCC2`, the survival was inactive: 115%.

Take `Cc1ccc(NC(=O)Nc2ccccc2OCc2cc(=O)n3ccccc3n2)c(Cl)c1`: the survival is inactive: 69%.

As for `O=C(CCCCn1c(=O)c2ccccc2n(CC(=O)Nc2ccc(F)cc2F)c1=O)NCCc1ccccc1`, the survival is inactive: 98%.

In the case of `COc1cc(C(=O)Nc2ccc3c(c2)N(C2CCCC2)C(=O)c2ccccc2S3)cc(OC)c1OC`, the survival was inactive: 64%.

For `CCOc1ccccc1NC(=O)C1CCCN1S(=O)(=O)c1ccc2c(c1)C(C)(C)C(=O)N2C` (stereo not given), the survival is inactive: 85%.

In the case of `CC(C)Oc1ccc(C(=O)NCC(c2ccc(N(C)C)cc2)N2CCCC2)cc1` (stereo not given), the survival was inactive: 47%.

As to `CCOc1ccccc1NC(=O)CCNS(=O)(=O)c1cccc2nonc12`, the survival is inactive: 65%.

In the case of `Cc1ccc(C)c(NC(=O)Cn2cc(C(=O)c3cccs3)c3ccccc32)c1`, the survival was inactive: 143%.
